Test results as given in the supplement of paper PMC4967469.
Lines with a small IC50 respond at low doses; where the fit passes the top or lowest dose, that dose stands as a limit. AUC sums up the same curve from the lowest dose to the 256-fold higher top dose; values near 1 show little effect. Where the top dose is marked as inferred, it is not printed in the source and was worked back from the curve model. Drugs with an entry number were screened twice under separate entries, and the two screens often disagree.

compound: NC(=O)[C@@H](CCC(F)(F)F)N(Cc1ccc(-c2ncon2)cc1F)S(=O)(=O)c1ccc(Cl)cc1 [BMS-708163]; assay: Viability of human cancer cell lines after 72 h of drug (GDSC screen); conditions: screen: GDSC drug entry 205; top dose inferred
Method: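 Human cancer cell lines in 384-well plates, medium with 10% serum, drug for 72 h over a 256-fold dose range (nine 2-fold or five 4-fold steps up to the top dose). Adherent lines were fixed and stained with the nucleic acid dye Syto60, suspension lines read with resazurin; signal relative to control wells, capped at 0 and 100%. One two-parameter sigmoid per drug and line, fitted in a mixed model over all curves with the slope shared within a line.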

Cell Line	AUC	IC50
CaR-1 (large intestine, adherent, top dose 10.24 µM)	0.978	> 10.2 µM
Calu-3 (lung adenocarcinoma, adherent, top dose 10.24 µM)	0.968	> 10.2 µM
Calu-6 (lung adenocarcinoma, adherent, top dose 2.56 µM)	0.984	> 2.56 µM
Caov-3 (ovary, adherent, top dose 10.24 µM)	0.987	> 10.2 µM
Caov-4 (ovary, adherent, top dose 10.24 µM)	0.966	> 10.2 µM
Capan-2 (pancreas, adherent, top dose 10.24 µM)	0.977	> 10.2 µM
ChaGo-K-1 (non-small cell lung carcinoma, adherent, top dose 10.24 µM)	0.985	> 10.2 µM
D-247MG (glioma, adherent, top dose 10.24 µM)	0.946	> 10.2 µM
D-263MG (glioma, adherent, top dose 10.24 µM)	0.983	> 10.2 µM
D-283MED (medulloblastoma, adherent, top dose 10.24 µM)	0.99	> 10.2 µM
D-336MG (glioma, adherent, top dose 10.24 µM)	0.972	> 10.2 µM
D-392MG (glioma, adherent, top dose 10.24 µM)	0.975	> 10.2 µM
D-423MG (glioma, adherent, top dose 10.24 µM)	0.968	> 10.2 µM
D-502MG (glioma, adherent, top dose 10.24 µM)	0.918	> 10.2 µM
D-542MG (glioma, adherent, top dose 10.24 µM)	0.984	> 10.2 µM
D-566MG (glioma, adherent, top dose 10.24 µM)	0.986	> 10.2 µM
DAN-G (pancreas, adherent, top dose 10.24 µM)	0.992	> 10.2 µM
DB (B-cell lymphoma, suspension, top dose 10.24 µM)	0.983	> 10.2 µM
DBTRG-05MG (glioma, adherent, top dose 10.24 µM)	0.981	> 10.2 µM
DEL (lymphoid neoplasm, suspension, top dose 10.24 µM)	0.994	> 10.2 µM
DG-75 (Burkitt lymphoma, suspension, top dose 10.24 µM)	0.987	> 10.2 µM
DJM-1 (skin, adherent, top dose 10.24 µM)	0.989	> 10.2 µM
DK-MG (glioma, adherent, top dose 10.24 µM)	0.977	> 10.2 µM
DMS-53 (small cell lung carcinoma, adherent, top dose 10.24 µM)	0.985	> 10.2 µM
DMS-79 (small cell lung carcinoma, suspension, top dose 10.24 µM)	0.986	> 10.2 µM

Cell Line	AUC	IC50
DMS-114 (small cell lung carcinoma, adherent, top dose 10.24 µM)	0.982	> 10.2 µM
DMS-273 (small cell lung carcinoma, adherent, top dose 10.24 µM)	0.977	> 10.2 µM
DND-41 (T-cell leukaemia, suspension, top dose 10.24 µM)	0.962	> 10.2 µM
DOK (head and neck, adherent, top dose 10.24 µM)	0.975	> 10.2 µM
DOV13 (ovary, adherent, top dose 10.24 µM)	0.983	> 10.2 µM
DSH1 (bladder, adherent, top dose 10.24 µM)	0.984	> 10.2 µM
DU-145 (prostate, adherent, top dose 10.24 µM)	0.984	> 10.2 µM
DU-4475 (breast, suspension, top dose 10.24 µM)	0.992	> 10.2 µM
Daoy (medulloblastoma, adherent, top dose 10.24 µM)	0.975	> 10.2 µM
Daudi (Burkitt lymphoma, suspension, top dose 10.24 µM)	0.99	> 10.2 µM
Detroit562 (head and neck, adherent, top dose 10.24 µM)	0.988	> 10.2 µM
DoTc2-4510 (cervix, adherent, top dose 10.24 µM)	0.989	> 10.2 µM
EB2 (Burkitt lymphoma, suspension, top dose 10.24 µM)	0.988	> 10.2 µM
EB-3 (Burkitt lymphoma, suspension, top dose 10.24 µM)	0.978	> 10.2 µM
EBC-1 (lung squamous cell carcinoma, adherent, top dose 10.24 µM)	0.983	> 10.2 µM
EC-GI-10 (oesophagus, adherent, top dose 10.24 µM)	0.989	> 10.2 µM
ECC10 (stomach, suspension, top dose 10.24 µM)	0.959	> 10.2 µM
EFM-19 (breast, adherent, top dose 10.24 µM)	0.977	> 10.2 µM
EFM-192A (breast, adherent, top dose 10.24 µM)	0.984	> 10.2 µM
EFO-21 (ovary, adherent, top dose 10.24 µM)	0.975	> 10.2 µM
EFO-27 (ovary, adherent, top dose 10.24 µM)	0.981	> 10.2 µM
EGI-1 (biliary tract, adherent, top dose 10.24 µM)	0.982	> 10.2 µM
EJM (lymphoid neoplasm, semi-adherent, top dose 10.24 µM)	0.986	> 10.2 µM
EKVX (lung adenocarcinoma, adherent, top dose 2.56 µM)	0.97	> 2.56 µM
EM-2 (chronic myeloid leukaemia, suspension, top dose 10.24 µM)	0.982	> 10.2 µM

Cell Line	AUC	IC50
EMC-BAC-1 (lung adenocarcinoma, adherent, top dose 10.24 µM)	0.972	> 10.2 µM
EMC-BAC-2 (lung adenocarcinoma, adherent, top dose 10.24 µM)	0.982	> 10.2 µM
EN (endometrium, adherent, top dose 10.24 µM)	0.983	> 10.2 µM
EPLC-272H (lung squamous cell carcinoma, adherent, top dose 10.24 µM)	0.976	> 10.2 µM
ES1 (Ewing sarcoma, adherent, top dose 10.24 µM)	0.985	> 10.2 µM
ES3 (Ewing sarcoma, adherent, top dose 10.24 µM)	0.981	> 10.2 µM
ES4 (Ewing sarcoma, adherent, top dose 10.24 µM)	0.932	> 10.2 µM
ES5 (Ewing sarcoma, adherent, top dose 10.24 µM)	0.982	> 10.2 µM
ES6 (Ewing sarcoma, adherent, top dose 10.24 µM)	0.977	> 10.2 µM
ES7 (Ewing sarcoma, adherent, top dose 10.24 µM)	0.984	> 10.2 µM
ES8 (Ewing sarcoma, adherent, top dose 10.24 µM)	0.936	> 10.2 µM
ES-2 (ovary, adherent, top dose 10.24 µM)	0.991	> 10.2 µM
ESO26 (oesophagus, adherent, top dose 10.24 µM)	0.987	> 10.2 µM
ESO51 (oesophagus, semi-adherent, top dose 10.24 µM)	0.979	> 10.2 µM
ESS-1 (endometrium, adherent, top dose 10.24 µM)	0.987	> 10.2 µM
ETK-1 (biliary tract, adherent, top dose 10.24 µM)	0.983	> 10.2 µM
EVSA-T (breast, adherent, top dose 10.24 µM)	0.991	> 10.2 µM
EW-1 (Ewing sarcoma, semi-adherent, top dose 10.24 µM)	0.988	> 10.2 µM
EW-3 (Ewing sarcoma, adherent, top dose 10.24 µM)	0.953	> 10.2 µM
EW-7 (Ewing sarcoma, semi-adherent, top dose 10.24 µM)	0.963	> 10.2 µM
EW-11 (Ewing sarcoma, adherent, top dose 10.24 µM)	0.981	> 10.2 µM
EW-13 (Ewing sarcoma, suspension, top dose 10.24 µM)	0.964	> 10.2 µM
EW-16 (Ewing sarcoma, adherent, top dose 10.24 µM)	0.976	> 10.2 µM

same assay, conditions: top dose 5 µM; screen: GDSC drug entry 1072; top dose inferred

Cell Line	AUC	IC50
D-423MG (glioma, adherent)	0.934	> 5 µM
D-566MG (glioma, adherent)	0.983	> 5 µM
DIFI (large intestine, adherent)	0.986	> 5 µM
DOV13 (ovary, adherent)	0.977	> 5 µM
EMC-BAC-2 (lung adenocarcinoma, adherent)	0.981	> 5 µM
ESO26 (oesophagus, adherent)	0.976	> 5 µM
ESO51 (oesophagus, semi-adherent)	0.87	> 5 µM
